This is an account of results in publication PMC3410417 (The Journal of Cell Biology, 2012).

The target of the assay is NMDA receptor (YFP-NR1A + NR2B) (UniProt P35439; Q01097). Kind of assay: FRET or BRET.

B1: Rluc8-mGlu5a (receptor)
chain: not shown
Regarding B1, the “BRET ratio in spine over shaft in the presence of TAT-Homer1a” value came to 1.77 ± 0.12.
